Results from PubChem BioAssay (Tox21).
Active and inactive are the calls of the source. Unless noted, calls follow the shape of the dose curve; as a rule, active = well fitted curve in the direction sought with a large enough effect in the repeat runs; inconclusive = weak or mixed curves; inactive = no such curve, though single readings can be large; an effect the other way counts as inactive or inconclusive.

Tests used:
[1] = qHTS assay for small molecule agonists of the p53 signaling pathway (AID 651631; calls by dose curve; also: nearly all actives have a fitted effect of over 15% in size; also: potency is read from the fitted curve at half-maximal effect; as to activation: % is scaled to controls: 0 for no effect and ±100 for the full control effect); conditions: HCT-116 p53RE-bla reporter, beta-lactamase FRET ratio, 16 h; activation: at 73.3 µM (top of the series) unless noted
Method in brief: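 Readout was fluorescence from the LiveBLAzer FRET substrate, applied for 2 h at room temperature after 16 h compound exposure at 37 °C. Cells were the p53RE-bla HCT-116 line, with beta-lactamase driven by p53 response elements.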

[2] = qHTS assay for small molecule disruptors of the mitochondrial membrane potential (AID 720635); conditions: HepG2 mitochondrial membrane potential, Mito-MPS dye ratio; ratio activity, negative = MMP loss: at 83.2 µM (top of the series) unless noted; also: potency is read from the fitted curve at half-maximal effect; as to ratio activity, negative = MMP loss: % is scaled to controls: 0 for no effect and ±100 for the full control effect
Method in brief: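 Mitochondrial membrane potential tracked with Mito-MPS dye, red aggregates (ex 540/em 590 nm) against green monomers (ex 490/em 535 nm). Compound treatment 1 hr at 37C, dye 30 min in HepG2.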

[3] = target: Glucocorticoid receptor (Homo sapiens) (UniProt P04150); assay: qHTS assay to identify small molecule agonists of the glucocorticoid receptor (GR) signaling pathway (AID 720691; active = well fitted activation curve with a large enough effect in the signal ratio in the repeat runs, not every such curve was filed as active; inconclusive = weak or mixed curves, or effect the other way; inactive = no such curve, though single readings can be large or run the other way; the % refers to the signal ratio; also: potency is read from the fitted curve at half-maximal effect); conditions: GR-bla HeLa, beta-lactamase reporter ratio, 18 h; activation: at 62.4 µM (top of the series) unless noted
Method in brief: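 Beta-lactamase reporter activity, read as fluorescence intensity, was measured in GR-bla HeLa cells exposed to compounds for 18 h at 37 C and then loaded with LiveBLAzer B/G FRET substrate for 2 h at room temperature.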

[4] = target: Glucocorticoid receptor (Homo sapiens) (UniProt P04150); assay: qHTS assay to identify small molecule antagonists of the glucocorticoid receptor (GR) signaling pathway (AID 720692; active = well fitted inhibition curve with a large enough effect in the signal ratio in the repeat runs, not every such curve was filed as active; inconclusive = weak or mixed curves, or effect the other way; inactive = no such curve, though single readings can be large or run the other way; the % refers to the signal ratio; also: potency is read from the fitted curve at half-maximal effect); conditions: GR-bla HeLa, beta-lactamase FRET ratio, dexamethasone-stimulated, 18 h; activity change, negative = inhibition: at 58.5 µM (top of the series) unless noted
Method in brief: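 Fluorescence from cleaved LiveBLAzer B/G FRET substrate reports GRE-driven beta-lactamase in HeLa cells; compounds are tested against 5 nM dexamethasone (final) over 18 h at 37 C, substrate incubation 2 h at room temperature.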

[5] = qHTS assay to identify small molecule antagonists of the glucocorticoid receptor (GR) signaling pathway - cell viability counter screen (AID 720693); conditions: GR-bla HeLa viability, CellTiter-Glo luminescence, 18 h, with 5 nM dexamethasone present; viability change, negative = cytotoxic: at 58.5 µM (top of the series) unless noted; also: potency is read from the fitted curve at half-maximal effect; nearly all actives have a fitted effect of over 55% in size
[6] = qHTS assay to identify small molecule antagonists of the androgen receptor (AR) signaling pathway - cell viability counter screen (AID 743033; also: potency is read from the fitted curve at half-maximal effect; nearly all actives have a fitted effect of over 45% in size)
[7] = target: Androgen receptor (Homo sapiens) (UniProt P10275); assay: qHTS assay to identify small molecule antagonists of the androgen receptor (AR) signaling pathway (AID 743035; active = well fitted inhibition curve with a large enough effect in the signal ratio in the repeat runs, not every such curve was filed as active; inconclusive = weak or mixed curves, or effect the other way; inactive = no such curve, though single readings can be large or run the other way; the % refers to the signal ratio; also: potency is read from the fitted curve at half-maximal effect); conditions: HEK293 AR-UAS-bla, R1881-stimulated, beta-lactamase FRET, 16 h; activity change, negative = inhibition: at 58.5 µM (top of the series) unless noted
Method in brief: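 Cell line: GeneBLAzer AR-UAS-bla GripTite (HEK293). Stimulus: R1881 added after compound. Exposure: 16 h, 37C, 5% CO2. Readout: LiveBLAzer B/G FRET fluorescence after 2 h at room temperature.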

[8] = target: Androgen receptor (Homo sapiens) (UniProt P10275); assay: qHTS assay to identify small molecule agonists of the androgen receptor (AR) signaling pathway (AID 743036; active = well fitted activation curve with a large enough effect in the signal ratio in the repeat runs, with a control signal flat, not every such curve was filed as active; inconclusive = weak or mixed curves, or effect the other way; inactive = no such curve, though single readings can be large or run the other way; the % refers to the signal ratio; also: potency is read from the fitted curve at half-maximal effect); conditions: HEK293 AR-UAS-bla GripTite, beta-lactamase FRET ratio, 16 h; activation: at 62.4 µM (top of the series) unless noted
Method in brief: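 Activation was read as beta-lactamase FRET signal from LiveBLAzer B/G substrate, added for 2 h at room temperature. Before that, GeneBLAzer AR-UAS-bla GripTite (HEK293) cells had 16 h compound exposure at 37C.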

[9] = qHTS assay to identify small molecule antagonists of the thyroid receptor (TR) signaling pathway - cell viability counter screen (AID 743064); conditions: GH3.TRE-Luc viability, CellTiter-Fluor, 24 h; activity change, negative = cytotoxic: at 70.3 µM (top of the series) unless noted; also: nearly all actives have a fitted effect of over 50% in size; also: potency is read from the fitted curve at half-maximal effect; as to activity change, negative = cytotoxic: % is scaled to controls: 0 for no effect and ±100 for the full control effect
Method in brief: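 In-well cytotoxicity read by CellTiter-Fluor (30 min, 37 C) following 23.5 h exposure of GH3 cells bearing a TRE-luciferase sensor. Compounds were added alongside 1 nM (final) T3 to drive TR transactivation.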

[10] = system: thyroid hormone receptor (rat, GH3 cells); assay: qHTS assay to identify small molecule agonists of the thyroid receptor (TR) signaling pathway (AID 743066; calls by dose curve; also: % is scaled to controls: 0 for no effect and ±100 for the full control effect); conditions: GH3.TRE-Luc cells, TR agonist luciferase, 24 h; activation: at 83.9 µM (top of the series) unless noted
[11] = target: Estrogen receptor (Homo sapiens) (UniProt P03372); assay: qHTS assay to identify small molecule antagonists of the estrogen receptor alpha (ER-alpha) signaling pathway (AID 743069; active = well fitted curve in the direction sought with a large enough effect in the signal ratio in the repeat runs, not every such curve was filed as active; inconclusive = weak or mixed curves, or effect the other way; inactive = no such curve, though single readings can be large or run the other way; the % refers to the signal ratio; also: potency is read from the fitted curve at half-maximal effect); conditions: HEK293 ER-alpha-UAS-bla, beta-lactamase ratio, antagonist mode; activity, negative = inhibition: at 69.4 µM (top of the series) unless noted
Method in brief: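 Compound effects are measured against 17beta-estradiol stimulation in HEK293 cells with a UAS-controlled beta-lactamase reporter for ER-alpha. Exposure lasts 18 hr at 37C; LiveBLAzer B/G FRET substrate follows for 2 hr at room temperature.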

[12] = qHTS assay to identify small molecule antagonists of the estrogen receptor alpha (ER-alpha) signaling pathway - cell viability counter screen (AID 743074; calls by dose curve;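 also: HEK293 cells carrying ER-alpha-UAS-bla reporter stimulated with 17beta-estradiol; potency is read from the fitted curve at half-maximal effect; nearly all actives have a fitted effect of over 45% in size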)
[13] = target: Estrogen receptor (Homo sapiens) (UniProt P03372); assay: qHTS assay to identify small molecule agonists of the estrogen receptor alpha (ER-alpha) signaling pathway (AID 743075; calls by dose curve; also: potency is read from the fitted curve at half-maximal effect); conditions: HEK293 ER-alpha-UAS-bla, beta-lactamase FRET ratio, 18 h; activation: at 70.1 µM (top of the series) unless noted
[14] = target: Estrogen receptor (Homo sapiens) (UniProt P03372); assay: qHTS assay to identify small molecule agonists of the estrogen receptor alpha (ER-alpha) signaling pathway using the BG1 cell line (AID 743079); conditions: BG1Luc4E2 cells, ERE-luciferase agonist, 22 h; activation: at 70.3 µM (top of the series) unless noted; also: potency is read from the fitted curve at half-maximal effect; nearly all actives have a fitted effect of over 20% in size
[15] = qHTS assay to identify small molecule antagonists of the estrogen receptor alpha (ER-alpha) signaling pathway using the BG1 cell line (AID 743080; calls by dose curve;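 also: BG1 cells stimulated with 17beta-estradiol alongside compound; potency is read from the fitted curve at half-maximal effect; nearly all actives have a fitted effect of over 25% in size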); conditions: BG1Luc4E2 ERE-luciferase antagonist mode, luminescence; activity change, negative = inhibition: at 70.3 µM (top of the series) unless noted
Method in brief: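 Endogenous full-length ER-alpha in BG1-Luc-4E2 cells drives a stably integrated 4×ERE luciferase gene; compounds were tested against 17beta-estradiol over 21.5 h, with luminescence and multiplexed viability fluorescence recorded.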

[16] = qHTS assay to identify small molecule antagonists of the estrogen receptor alpha (ER-alpha) signaling pathway using the BG1 cell line - cell viability counter screen (AID 743081); conditions: BG1Luc4E2 viability, CellTiter-Fluor, 22 h; activity change, negative = cytotoxicity: at 70.3 µM (top of the series);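 also: compound given together with 17beta-estradiol as the ER stimulus; potency is read from the fitted curve at half-maximal effect; nearly all actives have a fitted effect of over 45% in size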
[17] = target: Aryl hydrocarbon receptor (Homo sapiens) (UniProt P35869); assay: qHTS assay to identify small molecule that activate the aryl hydrocarbon receptor (AhR) signaling pathway (AID 743085);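 also: HG2L7.5c1 human HepG2 liver cells with stably integrated DRE-driven firefly reporter; % is scaled to controls: 0 for no effect and ±100 for the full control effect; nearly all actives have a fitted effect of over 15% in size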
Method in brief: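 Luminescence (ONE-Glo) from a dioxin-responsive-element luciferase reporter in HG2L7.5c1 HepG2 cells after 24 hr compound exposure at 37C; viability measured by CellTiter-Fluor fluorescence beforehand.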

[18] = target: Peroxisome proliferator-activated receptor gamma (Homo sapiens) (UniProt P37231); assay: qHTS assay to identify small molecule agonists of the peroxisome proliferator-activated receptor gamma (PPARg) signaling pathway (AID 743094; active = well fitted activation curve with a large enough effect in the signal ratio in the repeat runs, not every such curve was filed as active; inconclusive = weak or mixed curves, or effect the other way; inactive = no such curve, though single readings can be large or run the other way; the % refers to the signal ratio; also: potency is read from the fitted curve at half-maximal effect); conditions: HEK293H PPARg-UAS-bla, beta-lactamase FRET ratio, 17 h; activation: at 57 µM (top of the series) unless noted
Method in brief: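 Stably transfected HEK293H cells (GeneBLAzer PPARg UAS-bla) were incubated with test substances for 17 h at 37C after a 5 h pre-incubation; beta-lactamase activity was then detected by FRET substrate fluorescence.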

[19] = qHTS assay for identifying genotoxic compounds that show differential cytotoxicity against isogenic chicken DT40 cell lines with known DNA damage response pathways - Rev3 mutant cell line (AID 743014); conditions: chicken DT40 Rev3-/- viability, CellTiter-Glo, 40 h; activity, negative = cytotoxicity: at 68.4 µM (top of the series); also: potency is read from the fitted curve at half-maximal effect; nearly all actives have a fitted effect of over 55% in size
Tags tell the direction and shape of the fitted curve or compound fluorescence and quenching.

Chain of UniProt P04150 (P04150 whole entry, looked up): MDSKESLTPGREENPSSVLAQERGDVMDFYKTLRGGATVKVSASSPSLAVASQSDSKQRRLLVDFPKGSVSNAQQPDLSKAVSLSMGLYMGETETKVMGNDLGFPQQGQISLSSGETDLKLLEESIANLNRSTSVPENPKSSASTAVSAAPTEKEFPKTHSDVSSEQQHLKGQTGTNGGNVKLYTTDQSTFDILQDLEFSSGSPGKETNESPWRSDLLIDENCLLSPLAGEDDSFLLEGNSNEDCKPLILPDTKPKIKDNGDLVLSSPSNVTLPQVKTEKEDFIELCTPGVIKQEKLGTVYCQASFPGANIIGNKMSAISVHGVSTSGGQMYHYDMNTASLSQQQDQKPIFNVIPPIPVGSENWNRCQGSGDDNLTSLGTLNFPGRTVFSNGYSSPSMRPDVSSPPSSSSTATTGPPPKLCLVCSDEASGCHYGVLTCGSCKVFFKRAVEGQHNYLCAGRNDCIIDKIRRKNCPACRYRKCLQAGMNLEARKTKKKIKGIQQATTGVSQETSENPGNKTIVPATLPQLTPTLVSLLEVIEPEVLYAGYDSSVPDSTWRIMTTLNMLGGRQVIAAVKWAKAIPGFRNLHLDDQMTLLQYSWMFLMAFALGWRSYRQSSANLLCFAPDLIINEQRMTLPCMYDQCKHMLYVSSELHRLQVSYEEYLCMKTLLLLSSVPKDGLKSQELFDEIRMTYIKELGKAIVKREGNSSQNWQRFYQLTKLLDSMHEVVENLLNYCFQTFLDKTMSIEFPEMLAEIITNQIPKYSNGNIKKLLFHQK
Chain of UniProt P03372 (P03372 whole entry, looked up): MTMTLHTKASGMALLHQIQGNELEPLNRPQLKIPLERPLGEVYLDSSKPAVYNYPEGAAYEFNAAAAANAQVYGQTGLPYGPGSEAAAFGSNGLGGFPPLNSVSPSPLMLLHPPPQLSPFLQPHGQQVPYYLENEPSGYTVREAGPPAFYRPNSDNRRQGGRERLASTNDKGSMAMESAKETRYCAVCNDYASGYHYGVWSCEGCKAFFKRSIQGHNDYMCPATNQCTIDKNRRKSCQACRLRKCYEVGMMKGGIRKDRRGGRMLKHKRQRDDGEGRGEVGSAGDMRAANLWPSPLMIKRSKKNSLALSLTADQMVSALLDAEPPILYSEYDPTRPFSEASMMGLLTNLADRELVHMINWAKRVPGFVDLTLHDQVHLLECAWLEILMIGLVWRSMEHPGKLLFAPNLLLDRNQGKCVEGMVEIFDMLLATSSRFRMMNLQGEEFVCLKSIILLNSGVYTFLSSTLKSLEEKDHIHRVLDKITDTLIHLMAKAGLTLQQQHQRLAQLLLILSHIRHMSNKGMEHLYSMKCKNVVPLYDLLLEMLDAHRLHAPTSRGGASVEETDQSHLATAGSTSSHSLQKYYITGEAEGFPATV
Chain of UniProt P10275 (P10275 whole entry, looked up): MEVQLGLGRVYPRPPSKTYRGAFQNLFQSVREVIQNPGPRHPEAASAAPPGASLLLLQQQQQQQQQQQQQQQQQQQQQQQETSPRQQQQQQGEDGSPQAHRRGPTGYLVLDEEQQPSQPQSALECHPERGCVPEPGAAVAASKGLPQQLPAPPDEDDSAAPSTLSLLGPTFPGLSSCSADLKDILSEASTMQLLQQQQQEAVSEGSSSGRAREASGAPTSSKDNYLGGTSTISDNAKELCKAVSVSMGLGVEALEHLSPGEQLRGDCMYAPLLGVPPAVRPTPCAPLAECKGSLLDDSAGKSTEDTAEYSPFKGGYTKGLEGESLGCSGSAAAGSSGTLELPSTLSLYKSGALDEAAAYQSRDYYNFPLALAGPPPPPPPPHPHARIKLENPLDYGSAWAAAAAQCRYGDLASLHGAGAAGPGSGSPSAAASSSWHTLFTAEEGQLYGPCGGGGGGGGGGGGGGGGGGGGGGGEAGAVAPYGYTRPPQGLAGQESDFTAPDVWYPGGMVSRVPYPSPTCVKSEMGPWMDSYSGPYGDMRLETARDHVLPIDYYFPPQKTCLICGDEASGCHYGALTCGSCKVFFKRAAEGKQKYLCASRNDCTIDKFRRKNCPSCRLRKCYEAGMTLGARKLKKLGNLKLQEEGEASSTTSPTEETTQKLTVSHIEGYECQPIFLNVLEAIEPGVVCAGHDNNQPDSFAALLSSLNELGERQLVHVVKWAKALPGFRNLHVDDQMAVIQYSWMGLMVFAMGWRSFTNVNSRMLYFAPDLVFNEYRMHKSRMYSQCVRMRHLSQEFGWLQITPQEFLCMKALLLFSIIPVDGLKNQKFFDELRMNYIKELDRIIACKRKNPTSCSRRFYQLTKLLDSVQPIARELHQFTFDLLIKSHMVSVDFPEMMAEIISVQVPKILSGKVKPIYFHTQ
Chain of UniProt P37231 (P37231 whole entry, looked up): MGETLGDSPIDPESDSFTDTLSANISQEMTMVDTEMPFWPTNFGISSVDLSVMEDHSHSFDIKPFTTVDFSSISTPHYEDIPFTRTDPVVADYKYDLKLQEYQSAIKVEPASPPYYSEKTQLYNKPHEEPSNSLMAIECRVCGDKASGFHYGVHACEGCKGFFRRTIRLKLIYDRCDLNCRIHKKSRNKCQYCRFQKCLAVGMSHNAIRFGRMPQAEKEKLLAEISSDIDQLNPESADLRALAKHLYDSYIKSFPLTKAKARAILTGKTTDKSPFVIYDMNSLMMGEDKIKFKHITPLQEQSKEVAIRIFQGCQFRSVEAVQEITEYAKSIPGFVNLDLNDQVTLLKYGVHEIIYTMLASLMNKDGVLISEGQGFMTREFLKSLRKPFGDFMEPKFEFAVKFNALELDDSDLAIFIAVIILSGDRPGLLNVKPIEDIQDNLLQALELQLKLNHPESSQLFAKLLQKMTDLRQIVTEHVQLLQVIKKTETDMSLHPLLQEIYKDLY
Chain of UniProt P35869 (P35869 whole entry, looked up): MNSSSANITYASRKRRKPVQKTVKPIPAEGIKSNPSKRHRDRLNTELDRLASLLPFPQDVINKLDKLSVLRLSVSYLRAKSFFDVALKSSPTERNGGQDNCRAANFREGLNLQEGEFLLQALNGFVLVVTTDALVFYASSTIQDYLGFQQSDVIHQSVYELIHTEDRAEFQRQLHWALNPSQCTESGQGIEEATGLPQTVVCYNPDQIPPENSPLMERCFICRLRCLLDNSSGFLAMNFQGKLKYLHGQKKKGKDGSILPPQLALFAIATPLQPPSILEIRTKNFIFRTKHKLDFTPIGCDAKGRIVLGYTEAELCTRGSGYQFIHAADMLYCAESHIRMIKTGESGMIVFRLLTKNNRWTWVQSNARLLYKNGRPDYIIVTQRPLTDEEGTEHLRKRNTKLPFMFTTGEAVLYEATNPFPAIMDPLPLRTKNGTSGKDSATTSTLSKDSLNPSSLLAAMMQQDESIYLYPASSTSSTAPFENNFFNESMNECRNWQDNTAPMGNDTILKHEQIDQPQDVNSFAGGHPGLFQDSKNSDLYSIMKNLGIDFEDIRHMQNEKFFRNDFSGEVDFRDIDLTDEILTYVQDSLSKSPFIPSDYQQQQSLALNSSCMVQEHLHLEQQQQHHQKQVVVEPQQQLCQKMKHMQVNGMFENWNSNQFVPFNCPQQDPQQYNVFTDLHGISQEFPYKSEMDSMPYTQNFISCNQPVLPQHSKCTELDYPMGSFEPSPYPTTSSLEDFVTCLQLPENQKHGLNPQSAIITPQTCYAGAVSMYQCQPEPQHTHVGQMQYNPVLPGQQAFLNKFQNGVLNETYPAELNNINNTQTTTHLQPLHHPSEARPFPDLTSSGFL

Row | SMILES | Potency [1] | Potency [2] | Potency [3] | Potency [4] | Potency [5] | Potency [6] | Potency [7] | Potency [8] | Potency [9] | activation [10] | Potency [11] | Potency [12] | Potency [13] | Potency [14] | Potency [15] | Potency [16] | Potency [17] | Potency [18] | Potency [19]
1 | C[C@H]1CC[C@]2(NC1)O[C@H]1C[C@H]3[C@@H]4CC[C@H]5C[C@@H](O[C@@H]6O[C@H](CO)[C@H](O[C@@H]7O[C@H](CO)[C@@H](O)[C@H](O[C@@H]8OC[C@@H](O)[C@H](O)[C@H]8O)[C@H]7O[C@@H]7O[C@H](CO)[C@@H](O)[C@H](O)[C@H]7O)[C@H](O)[C@H]6O)CC[C@]5(C)[C@H]4CC[C@]3(C)[C@H]1[C@@H]2C | inconclusive: 2.11 µM [cytotoxic, full curve] | active: 1.97 µM | inconclusive: 3.38 µM [cytotoxic, full curve] | inconclusive: 2.68 µM [cytotoxic, full curve] | active: 2.39 µM | active: 4.77 µM | inconclusive: 6.01 µM | inconclusive: 3.38 µM [falling, full curve] | active: 2.37 µM | inconclusive: -8.93% [phenotype inactive] | inconclusive: 8.49 µM [cytotoxic, partial curve] | active: 10.7 µM | active: 9.52 µM [inconclusive] | inconclusive: 6.68 µM [inhibitor, partial curve, poor fit] | inconclusive: 21.1 µM [falling, partial curve] | inconclusive: 33.5 µM [cytotoxic, single point] | inactive | inconclusive: 16.9 µM [falling, partial curve] | 
2 | CC(=O)[C@@]1(O)CC[C@H]2[C@@H]3CCC4=CC(=O)CC[C@]4(C)C3(F)[C@@H](O)C[C@@]21C (some centres not stated) | inactive | inactive | active: 0.19 µM [inconclusive] | inconclusive: 0.0535 µM [activator, full curve] |  |  |  |  | inactive |  | inconclusive: 0.0477 µM [activator, full curve] |  |  |  | inconclusive: 0.15 µM [rising, full curve, poor fit] |  |  | inactive | inconclusive: 21.1 µM [cytotoxic, partial curve]
